Laboratory results as given in PubChem BioAssay AID686979 (National Center for Advancing Translational Sciences (NCATS), 2013).
In all, about 420,000 compounds went through this assay and about 50,000 (12%) were called active. The inconclusive results got no clear call from the source; some entries with a clear call stand among them for comparison. Calls follow the shape of the dose curve; as a rule, active = well fitted inhibition curve with a large enough effect; inconclusive = small, poorly fitted or top-dose-only effect; inactive = flat fitted curve, though single readings scatter. No potency is given beside an inconclusive call; the fits are too rough.

Experiment: qHTS for Inhibitors of human tyrosyl-DNA phosphodiesterase 1 (TDP1): qHTS in cells in presence of CPT; also: nearly all actives have a fitted effect of over 55% in size
Conditions: chicken DT40 Tdp1-/-;hTDP1 cells + 20 nM CPT, ATP luminescence, 48 h; activity change, negative = growth inhibition: at 46.2 µM (top of the series)
How it was run: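 Chicken DT40 Tdp1-/- cells complemented with human TDP1, 400 cells/well, exposed to compounds plus 20 nM camptothecin for at least 48 h at 37 C; viability read as ATP content by CellTiter-Glo luminescence.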
% is scaled to controls: 0 for no effect and ±100 for the full control effect; potency is read from the fitted curve at half-maximal effect; tags tell the direction and shape of the fitted curve.

SMILES	Potency	activity change, negative = growth inhibition
CC(C)CNc1nc(N)c([N+](=O)[O-])c(N2CCCCCC2)n1	inconclusive [inhibitor, partial curve]	–
CN(C)C(=O)c1cc([N+](=O)[O-])ccc1O	–	inactive: -21.3%
COCCNC(=O)C1(C)CCCN(CCOc2ccc(Cl)cc2)C1 (configuration not stated)	inconclusive [inhibitor, single point]	–
Cc1ccc(Nc2sc(C(=O)c3ccccc3)c(N)c2C(N)=O)cc1	inconclusive [inhibitor, single point]	–
CC1(c2ccc3ccccc3c2)NC(=O)N(CC(=O)N2CCN(S(=O)(=O)c3ccccc3F)CC2)C1=O (configuration not stated)	inconclusive [inhibitor, single point]	–
Cc1ccc(C)c(S(=O)(=O)N2CCN(C(=O)Nc3ccccc3)CC2)c1	–	inactive: 1.6%
CCCCn1c(CNC(=O)Cc2ccccc2)nc2ccccc21	inconclusive [inhibitor, single point]	–
CN1C(=O)/C(=C/c2cc3c(cc2Br)OCO3)NC1=S	–	inactive: 0.269%
Cc1nc(NC(=O)C2CCCC2)sc1Cc1ccc2c(c1)OCO2	inconclusive [inhibitor, single point]	–
CCc1ccccc1C1=CC(=O)C[C@H](c2ccc(OC)cc2)C1	–	inactive: 1.05%
O=C(c1cc(C(F)(F)F)cc(C(F)(F)F)c1)N1CCC[C@@]2(CCN(Cc3ccccc3)C2)C1	inconclusive [inhibitor, single point]	–
COc1ccc([C@H]2CC(=O)C=C(c3ccc4ncccc4c3)C2)cc1OC	inconclusive [inhibitor, single point]	–
COc1ccc(-c2ccc3c(c2)c(Sc2ccccc2)c(-c2ccccc2)n3C)cn1	inconclusive [inhibitor, single point]	–
COc1ccccc1C(=O)NC(=S)Nc1ccc(NC(=O)c2ccco2)cc1	–	inactive: -22%
CCOC(=O)CN(C(=O)COc1nc(-c2ccccc2)cc(C)c1C#N)c1cccc(OC)c1	inconclusive [inhibitor, single point]	–
O=C(NCc1cccc(Cl)c1)c1ccc2nc(N3CCOCC3)sc2c1	inconclusive [inhibitor, single point]	–
Cc1cccnc1NC(=O)COc1ccc2c(c1)CCC2	inconclusive [inhibitor, single point]	–
COCCCN(C(=O)c1ccccc1F)c1nc(-c2ccc(OC)cc2)cs1	inconclusive [inhibitor, single point]	–
Oc1ccc(N2CCN(c3nc(-c4cccs4)nc4ccccc34)CC2)cc1	inconclusive [inhibitor, single point]	–

SMILES	Potency	activity change, negative = growth inhibition
CC(c1ccccc1)n1ccnc1CO (configuration not stated)	–	inactive: 2.31%
Cn1cnc(S(=O)(=O)N2CCCCC2c2cc(C(=O)NCc3ccc(F)cc3)no2)c1 (configuration not stated)	–	inactive: -14.3%
Cn1c(=O)c2c(nc(NCCc3ccccc3)n2CC(=O)NCCc2ccccc2)n(C)c1=O	–	inactive: -1.58%
CCOc1ccc(N(CC)C(=O)CCc2nc(-c3ccccc3F)no2)cc1	inconclusive [inhibitor, single point]	–
CC(C)(C)c1ccc(/C=C2\Oc3cc(O)ccc3C2=O)cc1	active: 20.6 µM	–
COc1ccc(C(=O)Nc2nc3ccccc3n2CCOc2ccc(Cl)cc2)cc1	inconclusive [inhibitor, single point]	–
CCN(CC)CCOc1ccc(-c2nc3cc(Cl)ccc3s2)cc1	active: 4.73 µM	–
CCOC(=O)C1CCCN(C(=O)c2cc3ccccc3cc2OC)C1 (configuration not stated)	inconclusive [inhibitor, single point]	–
O=C(NCCc1ccccc1)c1ccc(Cn2c(SCc3ccccc3)nc3cccnc32)cc1	inconclusive [inhibitor, single point]	–
Cc1ccc(C(=O)NC(=S)Nc2ccc(Oc3ccc(Cl)cc3)cc2)cc1	inconclusive [inhibitor, single point]	–
O=c1[nH]c2ccccc2c(O)c1-c1ccccc1[N+](=O)[O-]	inconclusive [inhibitor, single point]	–
Cc1c(NC(=O)C(c2ccccc2)c2ccccc2)cccc1C(=O)O	–	inactive: -2.2%
O=C(c1ccncc1)N1CCc2ccccc2C1	–	inactive: 8.53%
COc1cccc(NC(=O)Cn2nc(C)c3c(C)n(-c4ccccc4)nc3c2=O)c1	–	inactive: -6.27%
CC(C)NC(=O)[C@@H]1C[C@@H](Sc2ccccn2)CN1C1CCN(C)CC1	–	inactive: 6.32%
Cc1cc(C(=O)NCc2ccc3c(c2)OCO3)n(-c2ccccc2)n1	inconclusive [inhibitor, single point]	–
O=C(Nc1cccnc1)C1Cc2c(-c3cccc(F)c3)ccnc2O1 (configuration not stated)	inconclusive [inhibitor, partial curve]	–
Cc1cc(C)n(/N=C/c2ccc(C(C)C)cc2)c(=O)c1C#N	inconclusive [inhibitor, partial curve]	–
